Results are given in words; binding and its absence hold for the method and conditions named. Binding seen in cells or lysates may run through a third protein. Some results given as binding are weak or reduced against the parent protein; the word gives no strength.
Target: Calcitonin receptor-like receptor (human) (UniProt Q16602)
Assay: co-IP; multiplexed suspension bead array (SBA) immunoassay: clarified lysates (1% DM; 50 mM Hepes, 1 mM EDTA, 150 mM NaCl, 5 mM MgCl2, pH 7.4) of HEK293F cells cotransfected with tagged GPCR and RAMP, diluted to 50 ug/ml, incubated overnight at 4°C with bar-coded beads carrying anti-tag (HA, 1D4, FLAG, OLLAS), anti-GPCR or anti-RAMP Abs; the partner detected with a PE-conjugated anti-tag mAb; Luminex FlexMap 3D, MFI

Sequences of proteins named here, by UniProt entry; tags and fusion partners are left off. Residues count along the entry.
UniProt Q16602, residues 23-461: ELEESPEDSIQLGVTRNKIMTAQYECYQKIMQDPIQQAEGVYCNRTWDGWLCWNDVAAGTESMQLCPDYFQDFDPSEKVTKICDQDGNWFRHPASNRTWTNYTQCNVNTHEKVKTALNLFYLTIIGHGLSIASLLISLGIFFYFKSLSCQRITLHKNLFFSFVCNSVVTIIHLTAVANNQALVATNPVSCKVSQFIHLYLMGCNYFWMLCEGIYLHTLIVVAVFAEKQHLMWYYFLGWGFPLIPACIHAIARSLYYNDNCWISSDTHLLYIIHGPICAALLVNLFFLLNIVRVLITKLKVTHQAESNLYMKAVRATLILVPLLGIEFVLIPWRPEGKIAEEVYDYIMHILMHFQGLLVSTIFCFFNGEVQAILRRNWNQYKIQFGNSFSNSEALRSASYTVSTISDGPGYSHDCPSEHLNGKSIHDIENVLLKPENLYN

B1: Receptor activity-modifying protein 3 (protein, UniProt O60896 28-148)
chain: CNETGMLERLPLCGKAFADMMGKVDVWKWCNLSEFIVYYESFTNCTEMEANVVGCYWPNPLAQGFITGIHRQFFSNCTVDRVHLEDPPDEVLIPLIVIPVVLTVAMAGLVVWRSKRTDTLL
For B1, the binding was “binds”.
